According to PubChem BioAssay AID686979 (National Center for Advancing Translational Sciences (NCATS), 2013):
Among all 420,000 compounds or so, about 50,000 (12%) were called active. The shares of active, inactive and inconclusive entries below differ from those in the screen. The call rests on the fitted dose curve; in most records, active means well fitted inhibition curve with a large enough effect; inconclusive means small, poorly fitted or top-dose-only effect; inactive means flat fitted curve, though single readings scatter. Potencies of inconclusive entries are left out as doubtful fits.

assay: qHTS for Inhibitors of human tyrosyl-DNA phosphodiesterase 1 (TDP1): qHTS in cells in presence of CPT; conditions: chicken DT40 Tdp1-/-;hTDP1 cells + 20 nM CPT, ATP luminescence, 48 h; activity change, negative = growth inhibition: at 46.2 µM (top of the series) unless noted; further: nearly all actives have a fitted effect of over 55% in size
How it was run: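 Cell growth measured by CellTiter-Glo luminescence after a minimum 48 h, 37 C compound exposure with 20 nM CPT in Tdp1-knockout DT40 cells stably expressing hTDP1, seeded 400/well; qHTS titration format.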
On the % scale 0 is the no-effect control and ±100 the full control effect; potency means the concentration at half of the fitted maximal effect; tags describe the fitted curve by direction and shape.

Row | SMILES | Potency | activity change, negative = growth inhibition
1 | COc1cc(Cl)ccc1OC1(C)CCN(Cc2ccccc2OC(F)F)C1 (configuration not stated) | active: 20.6 µM | 
2 | CCOC(=O)[C@]12CCCC=C1N(Cc1cccc3ccccc13)C(=O)[C@H](CC(=O)NCc1cccs1)C2 | inconclusive [inhibitor, single point] | 
3 | COc1ccc(N(CC(=O)NC2CCCCC2)C(=O)CNC(=O)c2cccs2)cc1OC |  | inactive: 1.88%
4 | CC1CC(C)CN(S(=O)(=O)c2ccc(C(=O)Nc3nnc(C4CC4)o3)cc2)C1 (configuration not stated) | inconclusive [inhibitor, single point] | 
5 | Cc1ccc(CN2CC(=O)N3[C@H]4c5cc(Cl)ccc5OC[C@@H]4[C@H](c4ccccc4)[C@]3(C)C2=O)cc1 | inconclusive [inhibitor, single point] | 
6 | COc1ccccc1CNC(=O)[C@H](Cc1c[nH]c2ccccc12)NC(=O)[C@@H]1Cc2ccccc2CN1 | inconclusive [inhibitor, single point] | 
7 | CN(Cc1ccc(Cl)cc1Cl)C(=O)c1cccc(S(=O)(=O)N2CCN(c3ccccc3)CC2)c1 | active: 25.9 µM | 
8 | COc1ccc(N(C(=O)c2snc(C(N)=O)c2N)C(C(=O)NC2CCCC2)c2ccc(C)o2)c(OC)c1 (configuration not stated) | inconclusive [inhibitor, single point] | 
9 | O=C(Nc1cccnc1)Nc1ccc(Br)cc1Cl | inconclusive [inhibitor, single point] | 
10 | COc1cc(C2CC(=O)Oc3c(C(CCN4CCOCC4)c4ccc(N(C)C)cc4)c(OC)cc(OC)c32)cc(OC)c1OC (configuration not stated) | inconclusive [inhibitor, single point] | 
11 | S=c1[nH]cnc2scc(-c3ccc(Cl)cc3)c12 | inconclusive [inhibitor, single point] | 
12 | O=[N+]([O-])c1cc(S(=O)(=O)N2CCOCC2)ccc1OCc1ccccc1C(F)(F)F |  | inactive: -19.2%
13 | CCC(C)NCCOCCSc1ccc(Cl)cc1 (configuration not stated) | inconclusive [inhibitor, single point] | 
14 | CCCC(=O)Nn1cnc2c(c1=O)C1(CCCC1)Cc1ccccc1-2 |  | inactive: 1.21%
15 | O=C(Nc1ccccc1-c1nc2ccccc2s1)c1ccc(Br)o1 |  | inactive: -21.8%
16 | CC1CCCCN1S(=O)(=O)c1ccc(S(=O)(=O)NCCc2ccncc2)cc1 (configuration not stated) | inconclusive [inhibitor, partial curve, poor fit] | 
17 | Cc1ccc(NC(=O)C2CCCN2c2nn3c(=O)cc(C)nc3s2)cc1 (configuration not stated) |  | inactive: 0.464%
18 | COC(=O)c1ccccc1NCC(=O)c1ccc(OC)cc1 | inconclusive [inhibitor, single point] | 
19 | CC1=C(C)CC(C(=O)Nc2ccc(C(=O)N3CCOCC3)cc2)C(C(=O)O)C1 (configuration not stated) |  | inactive: -3%
20 | CCOc1ccc(N(C)S(=O)(=O)c2ccc(C)c(C(=O)NCc3cccs3)c2)cc1 | inconclusive [inhibitor, partial curve] | 
21 | O=C(CN1CCCC1)Nc1nc(-c2ccc(Cl)cc2)cs1 | active: 25.9 µM | 
22 | Cc1ccc(CNS(=O)(=O)NCc2ccc(Cl)cc2)cc1 |  | inactive: -14.6%
23 | CCOc1ccccc1N1CCN(Cc2cnc(-c3ccccc3)[nH]2)CC1 | inconclusive [inhibitor, partial curve, poor fit] | 

Row | SMILES | Potency | activity change, negative = growth inhibition
24 | COc1cc(-c2nnc(SCC(=O)c3ccc(C)cc3)o2)cc(OC)c1OC | inconclusive [inhibitor, single point] | 
25 | Cc1c(C(=O)NC2CC2)oc2ccc(S(=O)(=O)N3CCCCCC3)cc12 | inconclusive [inhibitor, partial curve] | 
26 | CCSc1ccc([C@@H]2[C@H]3C(=O)N(CC)C(=O)[C@H]3[C@]3(C(=O)OC)CCCCN23)cc1OC | inconclusive [inhibitor, single point] | 
27 | Cn1c(SCCOc2cccc(Cl)c2)nnc1-c1ccncc1 | inconclusive [inhibitor, single point] | 
28 | COc1ccc(C2=NS(=O)(=O)N(C)C(C(=O)Nc3ccc4c(c3)OCO4)=C2)cc1 | active: 16.4 µM | 
29 | O=C(NCCCN1CCN(c2ccccc2F)CC1)c1ccc2nc(N3CCCCC3)sc2c1 | inconclusive [inhibitor, single point] | 
30 | C=C(C)c1cccc(C(C)(C)NC(=O)N2CCN(C/C=C/c3ccccc3)CC2)c1 | active: 23.1 µM | 
31 | OCCNc1c2ccccc2nc2c(F)c(F)c(F)c(F)c12 | active: 2.06 µM | 
32 | CSc1ccc(CN2CCC(C)(Oc3ccc4ccccc4c3)C2)cc1 (configuration not stated) | inconclusive [inhibitor, single point] | 
33 | O=C(O)c1ccc2c(c1)C(=O)N(c1nccs1)C2=O |  | inactive: -0.146%
34 | COc1cc(C(C)=O)ccc1COc1ccc(C(=O)OCC(=O)NC2CCS(=O)(=O)C2)cc1OC (configuration not stated) | inconclusive [inhibitor, single point] | 
35 | CC(C)C[C@H](NC(=O)c1nc[nH]c1C(=O)NC1CCN(C(=O)OC(C)(C)C)CC1)C(=O)OC(C)(C)C | inconclusive [inhibitor, single point] | 
36 | Cc1ccc(-c2csc(NC(=O)Cn3[nH]c(=O)c4ccccc4c3=O)n2)cc1 | inconclusive [inhibitor, single point] | 
37 | CC(C)CNC(=S)NC(=O)c1ccc(F)cc1 | active: 18.4 µM | 
38 | COC(=O)c1c(NC(=O)COC(=O)c2ccc(O)cc2)sc2c1CCCCC2 | inconclusive [inhibitor, single point] | 
39 | CCN(C(=O)COC(=O)c1ccc(SC)cc1OC)C1CCS(=O)(=O)C1 (configuration not stated) |  | inactive: -3.82%
40 | CSc1ccc(/C=C/C(=O)OCC(=O)N2CCN(c3ccccc3)CC2)cc1 |  | inactive: -10.9%
41 | CCCCCCCCn1c(=O)c(C(=O)OCC)c(O)c2ccccc21 | inconclusive [inhibitor, single point] | 
42 | CC1(C)CC(=O)C=C(c2ccc(-c3cnn(Cc4ccccc4)c3)cc2)C1=O | inconclusive [inhibitor, single point] | 
43 | CC(=O)Nc1ccc(C(=O)Nc2cccc(S(=O)(=O)N(C)c3ccccc3)c2)cc1 | active: 18.4 µM | 
44 | O=C(NCc1ccco1)C1CCN(C(=O)c2cc3sccc3n2Cc2ccc(F)cc2)CC1 | inconclusive [inhibitor, single point] | 
45 | COc1cc2ccccc2cc1C(=O)N(CCN(C)C)c1nc2c(F)cc(F)cc2s1 | inconclusive [inhibitor, single point] | 
46 | CC(=O)Nc1cccc(C(=O)NCc2ccc3c(c2)CCN3C(=O)c2ccc(F)cc2)c1 | active: 20.6 µM | 

Row | SMILES | Potency | activity change, negative = growth inhibition
47 | Cc1c(C(=O)NCc2ccc3c(c2)OCO3)sc2nc(-c3ccccc3)cn12 | inconclusive [inhibitor, single point] | 
48 | Cc1onc(-c2c(F)cccc2Cl)c1C(=O)Nc1nnc(C(F)(F)F)s1 | active: 11.6 µM | 
49 | CCCCCC(=O)N1C[C@H](n2cc(COC(=O)c3ccccc3)nn2)[C@@H](O)C[C@@H]1c1ccc(C)cc1 | inconclusive [inhibitor, single point] | 
50 | Cc1ccccc1-c1nc(CN2CCC(C(=O)N3CCC(C(N)=O)CC3)CC2)c(C)o1 |  | inactive: 18.3%
51 | Cc1c(CCNC(=O)C(C)(C)C)sc2nc(-c3ccc(F)cc3)nn12 | inconclusive [inhibitor, single point] | 
52 | CCN(C(=O)C1CCCN(c2ncnc3c2nc2n3CCCCC2)C1)c1cccc(Cl)c1 (configuration not stated) | active: 20.6 µM | 
53 | CCCCCCN1C2=NCCN2c2ccccc21 | inconclusive [inhibitor, single point] | 
54 | CC(=O)C1=C(C)NC(SCC(=O)c2ccc(F)cc2)=C(C#N)C1CC(C)C (configuration not stated) | inconclusive [inhibitor, single point] | 
55 | Cc1nn(-c2ccccc2)c(C)c1/C=N/NC(=O)c1cccs1 | active: 9.2 µM | 
56 | CC1(c2nnc(-c3cccc(Cl)c3)o2)CC(c2cccc(Cl)c2)=NO1 (configuration not stated) | inconclusive [inhibitor, single point] | 
57 | Cc1cc2c(cc3c(SCc4ccccc4Cl)nnc(C)n32)o1 | inconclusive [inhibitor, single point] | 
58 | CC(C)c1ccc(NC(=O)N(CCc2nc3ccccc3[nH]2)C2CCCC2)cc1 | inconclusive [inhibitor, single point] | 
59 | Cn1c(-c2ccc(C=O)s2)nc2c3ccccc3c3ccccc3c21 | inconclusive [inhibitor, single point] | 
60 | N#C/C(=C(/O)c1cccs1)c1nc2ccccc2[nH]1 | inconclusive [inhibitor, single point] | 
61 | CCCN(C/C=C/I)C1CCc2cccc(O)c2C1 (configuration not stated) | inconclusive [inhibitor, partial curve, poor fit] | 
62 | COc1ccccc1NC(=O)C1=C(C)Nc2nc(SCc3ccccc3)nn2C1c1ccncc1 (configuration not stated) | inconclusive [inhibitor, single point] | 
63 | O=C(c1cccc2nccnc12)N1CCCC(Nc2ccc(F)c(F)c2)C1 (configuration not stated) |  | inactive: 1.79%
64 | CCCSc1nc(NCc2ccco2)c2c3c(sc2n1)COC(C)(CC)C3 (configuration not stated) | inconclusive [inhibitor, partial curve] | 
65 | FC(F)(F)c1ccccc1-c1ccc2ncnc(N3CCOCC3)c2c1 | inconclusive [inhibitor, single point] | 
66 | COc1ccc(NS(=O)(=O)c2ccc(-c3ccccn3)s2)cc1 | inconclusive [inhibitor, partial curve, poor fit] | 
67 | COc1ccc(-n2c(SC3CCOC3=O)nc3ccccc32)cc1 (configuration not stated) | inconclusive [inhibitor, single point] | 
